Consider 16 molecules from US11000038B2, “Pyridone compounds and agricultural and horticultural fungicides containing the same as active ingredients” (priority 2017, dated 2021).

The subject of assay [1] is gray mold fungi (Botrytis cinerea). Put plainly: Test Example B: tomato gray mold, spray treatment of tomato plants. The conditions noted are these: for Test B control value class (tomato gray mold): control value=100{1-(n/3)}; for Test B control value: tomato gray mold.
The subject of assay [2] is grape downy mildew fungus (Plasmopara viticola). The assay can be described thus: Test Example G: grape downy mildew, spray treatment of grape plants. To be noted: for Test G control value class (grape downy mildew): 2.5 ml/pot, grape Neomuscat, 7 to 10 days from inoculation; for Test G control value: grape downy mildew, 7 to 10 days after inoculation.
Assay [3] concerns cabbage Alternaria sooty spot fungi (Alternaia brassicicola). Put plainly: Test Example C: cabbage Alternaria sooty spot, spray treatment of cabbage plants. The conditions noted are these: for Test C control value class (cabbage Alternaria sooty spot): control value=100{1-(n/3)}; for Test C control value: cabbage Alternaria sooty spot. The class given is in vivo. An excerpt:
[Test Example C] Cabbage Alternaria Sooty Spot
Test plants (cabbage variety: Shikidori) were cultivated until the cotyledons extended after the sowing of seeds.
<Control Value> Control value=100{1−(n/3)}

Assay [4] relates to wheat brown rust fungi (Puccinia recondita). The assay can be described thus: Test Example E: wheat brown rust, spray treatment of wheat plants. It counts as in vivo. The conditions noted are these: for Test E control value class (wheat brown rust): control value=100{1-(n/3)}; for Test E control value: wheat brown rust.
In assay [5] the test system is barley powdery mildew fungi (Blumeria graminis f. sp. hordei). Put plainly: Test Example D: barley powdery mildew, spray treatment of barley plants. The conditions noted are these: for Test D control value class (barley powdery mildew): control value=100{1-(n/3)}; for Test D control value: barley powdery mildew.
Where [6] appears, read: spray treatment of tomato plants.
Setting [7] is: spray treatment of cabbage plants.
Where [8] appears, read: spray treatment of wheat plants.
Where [9] appears, read: spray treatment of barley plants.

Turning to `CC(C)C(C)n1cc(Br)c(=O)c(Cl)c1-c1c(F)cc(F)cc1F` (centres unmarked) [Compound 43], the “Test B control value class (tomato gray mold)” value (“Test B control value class” below) in assay [1] (setting [6]) is on record as “H (H shows the control value of more than 50%)”. Further, the “Test G control value class (grape downy mildew)” value (“Test G control value class” below) in assay [2] (250 ppm spray) is listed as “L (L shows the control value of 50% or less)”. Besides, the “Test C control value class (cabbage Alternaria sooty spot)” value (from here on “Test C control value class”) in assay [3] (setting [7]) was “H (H shows the control value of more than 50%)”. In addition, the “Test E control value class (wheat brown rust)” value (from here on “Test E control value class”) in assay [4] (setting [8]) is “H (H shows the control value of more than 50%)”. In addition, the “Test D control value class (barley powdery mildew)” value (“Test D control value class” for short) in assay [5] (setting [9]) was “H (H shows the control value of more than 50%)”.
Regarding `O=c1c(Br)cn(Cc2ccccc2)c(-c2c(F)cc(F)cc2F)c1Cl` [Compound 56], in assay [1] (setting [6]), the “Test B control value class” value is “H (H shows the control value of more than 50%)”. The “Test G control value class” value in assay [2] (250 ppm spray) is “L (L shows the control value of 50% or less)”. Moreover, the “Test C control value class” value in assay [3] (setting [7]) is recorded as “H (H shows the control value of more than 50%)”. Further, in assay [4] (setting [8]), the “Test E control value class” value is reported as “H (H shows the control value of more than 50%)”. Moreover, the “Test D control value class” value in assay [5] (setting [9]) is listed as “H (H shows the control value of more than 50%)”.
With `O=c1c(Br)cn(-c2cc(F)ccc2Cl)c(-c2c(F)cccc2F)c1Br` [Compound 106], the “Test B control value class” value in assay [1] (setting [6]) was “H (H shows the control value of more than 50%)”. Besides, the “Test G control value class” value in assay [2] (250 ppm spray) is reported as “L (L shows the control value of 50% or less)”. Further, the “Test C control value class” value in assay [3] (setting [7]) is recorded as “H (H shows the control value of more than 50%)”. Also, the “Test E control value class” value in assay [4] (setting [8]) is on record as “H (H shows the control value of more than 50%)”. The “Test D control value class” value in assay [5] (setting [9]) is reported as “L (L shows the control value of 50% or less)”.
Take `CC(C)C(C)n1cc(Br)c(=O)c(F)c1-c1c(F)cc(F)cc1F` (centres unmarked) [Compound 134]: the “Test B control value class” value in assay [1] (setting [6]) was “H (H shows the control value of more than 50%)”. In assay [2] (250 ppm spray), the “Test G control value class” value is given as “L (L shows the control value of 50% or less)”. In assay [3] (setting [7]), the “Test C control value class” value is “H (H shows the control value of more than 50%)”. In addition, the “Test E control value class” value in assay [4] (setting [8]) is reported as “H (H shows the control value of more than 50%)”. The “Test D control value class” value in assay [5] (setting [9]) is “H (H shows the control value of more than 50%)”.
For the molecule `COc1ccc(Cn2cc(C)c(=O)c(C)c2-c2c(F)cc(F)cc2F)c(OC)c1` [Compound 246], the “Test B control value” in assay [1] (setting [6]) is given as “L (L shows the control value of 50% or less)”. Moreover, the “Test G control value” in assay [2] (250 ppm spray (2.5 ml/pot)) is given as “H (H shows the control value of more than 50%)”. The “Test C control value” in assay [3] (setting [7]) is “H (H shows the control value of more than 50%)”. Also, in assay [4] (setting [8]), the “Test E control value” is “H (H shows the control value of more than 50%)”. In addition, in assay [5] (setting [9]), the “Test D control value” is “L (L shows the control value of 50% or less)”.
With `Cc1ccccc1-n1cc(F)c(=O)c(C)c1-c1c(F)cc(F)cc1F` [Compound 278], in assay [1] (setting [6]), the “Test B control value” is given as “H (H shows the control value of more than 50%)”. Besides, the “Test G control value” in assay [2] (250 ppm spray (2.5 ml/pot)) is “H (H shows the control value of more than 50%)”. For the same molecule, the “Test C control value” in assay [3] (setting [7]) is listed as “H (H shows the control value of more than 50%)”. Also, the “Test E control value” in assay [4] (setting [8]) is recorded as “H (H shows the control value of more than 50%)”. For the same molecule, the “Test D control value” in assay [5] (setting [9]) is recorded as “H (H shows the control value of more than 50%)”.
For the molecule `Cc1ccc(-c2c(Br)c(=O)c(Cl)cn2-c2ccccc2C)cc1` [Compound 410], the “Test B control value” in assay [1] (spray treatment) is on record as “L (L shows the control value of 50% or less)”. For the same molecule, the “Test G control value” in assay [2] (250 ppm spray) is given as “H (H shows the control value of more than 50%)”. In assay [3] (spray treatment), the “Test C control value” is “L (L shows the control value of 50% or less)”. For the same molecule, in assay [4] (spray treatment), the “Test E control value” is “L (L shows the control value of 50% or less)”. Besides, in assay [5] (spray treatment), the “Test D control value” is “L (L shows the control value of 50% or less)”.
As to `CCCc1ccccc1-n1cc(Br)c(=O)c(Br)c1-c1c(F)cc(F)cc1F` [Compound 444], the “Test B control value” in assay [1] (spray treatment) is on record as “H (H shows the control value of more than 50%)”. In assay [2] (250 ppm spray), the “Test G control value” is recorded as “L (L shows the control value of 50% or less)”. In assay [3] (spray treatment), the “Test C control value” was “H (H shows the control value of more than 50%)”. Also, the “Test E control value” in assay [4] (spray treatment) was “H (H shows the control value of more than 50%)”. In addition, in assay [5] (spray treatment), the “Test D control value” was “H (H shows the control value of more than 50%)”.
As for `COc1cc(F)c(-c2c(C)c(=O)c(C)cn2-c2cc(Cl)ccc2C)c(F)c1` [Compound 464], the “Test B control value” in assay [1] (spray treatment) is listed as “H (H shows the control value of more than 50%)”. Moreover, the “Test G control value” in assay [2] (250 ppm spray) was “L (L shows the control value of 50% or less)”. The “Test C control value” in assay [3] (spray treatment) is “H (H shows the control value of more than 50%)”. The “Test E control value” in assay [4] (spray treatment) is “H (H shows the control value of more than 50%)”. In addition, in assay [5] (spray treatment), the “Test D control value” is on record as “H (H shows the control value of more than 50%)”.
`Cc1cn(-c2ccccc2Cl)c(-c2c(F)cccc2F)c(C)c1=O` [Compound 473]: the “Test B control value” in assay [1] (spray treatment) was “H (H shows the control value of more than 50%)”. Moreover, in assay [2] (250 ppm spray), the “Test G control value” is listed as “L (L shows the control value of 50% or less)”. Besides, in assay [3] (spray treatment), the “Test C control value” is given as “H (H shows the control value of more than 50%)”. For the same molecule, the “Test E control value” in assay [4] (spray treatment) was “H (H shows the control value of more than 50%)”. The “Test D control value” in assay [5] (spray treatment) is recorded as “H (H shows the control value of more than 50%)”.
With `Cc1ccc(Br)cc1-n1cc(C)c(=O)c(C)c1-c1c(F)cccc1F` [Compound 487], the “Test B control value” in assay [1] (spray treatment) is “H (H shows the control value of more than 50%)”. Besides, the “Test G control value” in assay [2] (250 ppm spray) is “L (L shows the control value of 50% or less)”. The “Test C control value” in assay [3] (spray treatment) was “H (H shows the control value of more than 50%)”. Further, the “Test E control value” in assay [4] (spray treatment) is reported as “H (H shows the control value of more than 50%)”. In assay [5] (spray treatment), the “Test D control value” is “L (L shows the control value of 50% or less)”.
Turning to `CCc1c(-c2ccccc2)n(-c2cc(OC)ccc2C)cc(Br)c1=O` [Compound 504], the “Test B control value” in assay [1] (spray treatment) was “H (H shows the control value of more than 50%)”. Besides, in assay [2] (250 ppm spray), the “Test G control value” is on record as “L (L shows the control value of 50% or less)”. Further, in assay [3] (spray treatment), the “Test C control value” is reported as “H (H shows the control value of more than 50%)”. In assay [4] (spray treatment), the “Test E control value” was “H (H shows the control value of more than 50%)”. In addition, the “Test D control value” in assay [5] (spray treatment) is reported as “L (L shows the control value of 50% or less)”.
On to `CCc1c(-c2ccccc2)n(-c2cccc(Cl)c2C)cc(C)c1=O` [Compound 545], for which the “Test B control value” in assay [1] (spray treatment) was “H (H shows the control value of more than 50%)”. Further, the “Test G control value” in assay [2] (250 ppm spray) was “L (L shows the control value of 50% or less)”. Besides, the “Test C control value” in assay [3] (spray treatment) is “H (H shows the control value of more than 50%)”. Further, the “Test E control value” in assay [4] (spray treatment) is reported as “L (L shows the control value of 50% or less)”. The “Test D control value” in assay [5] (spray treatment) is given as “L (L shows the control value of 50% or less)”.
Regarding `CCc1c(-c2c(F)cccc2F)n(-c2cc(OC)ccc2C)cc(Br)c1=O` [Compound 558], the “Test B control value” in assay [1] (spray treatment) is on record as “H (H shows the control value of more than 50%)”. Besides, the “Test G control value” in assay [2] (250 ppm spray) is reported as “H (H shows the control value of more than 50%)”. Further, in assay [3] (spray treatment), the “Test C control value” is reported as “H (H shows the control value of more than 50%)”. For the same molecule, in assay [4] (spray treatment), the “Test E control value” was “H (H shows the control value of more than 50%)”. For the same molecule, the “Test D control value” in assay [5] (spray treatment) is reported as “H (H shows the control value of more than 50%)”.
With `CCc1c(-c2ccccc2)n(-c2cccc(Br)c2C)cc(Br)c1=O` [Compound 572], in assay [1] (spray treatment), the “Test B control value” is listed as “H (H shows the control value of more than 50%)”. Besides, the “Test G control value” in assay [2] (250 ppm spray) was “L (L shows the control value of 50% or less)”. The “Test C control value” in assay [3] (spray treatment) was “H (H shows the control value of more than 50%)”. Besides, the “Test E control value” in assay [4] (spray treatment) is reported as “H (H shows the control value of more than 50%)”. Besides, the “Test D control value” in assay [5] (spray treatment) is recorded as “H (H shows the control value of more than 50%)”.
Take `CCc1ccc(O)cc1-n1cc(C)c(=O)c(C)c1-c1c(F)cccc1F` [Compound 618]: the “Test B control value” in assay [1] (spray treatment) was “L (L shows the control value of 50% or less)”. The “Test G control value” in assay [2] (250 ppm spray) is recorded as “L (L shows the control value of 50% or less)”. In addition, the “Test C control value” in assay [3] (spray treatment) is “L (L shows the control value of 50% or less)”. The “Test E control value” in assay [4] (spray treatment) is “L (L shows the control value of 50% or less)”. In assay [5] (spray treatment), the “Test D control value” is “L (L shows the control value of 50% or less)”.
